Consider 5 compounds from article PMC10920779, “Targeting P2Y14R protects against necroptosis of intestinal epithelial cells through PKA/CREB/RIPK1 axis in ulcerative colitis” (Nature Communications, 2024).

For one assay, the target named is T1, P2Y14R (Homo sapiens, UniProt Q15391).
T1 sequence (Q15391 1-338): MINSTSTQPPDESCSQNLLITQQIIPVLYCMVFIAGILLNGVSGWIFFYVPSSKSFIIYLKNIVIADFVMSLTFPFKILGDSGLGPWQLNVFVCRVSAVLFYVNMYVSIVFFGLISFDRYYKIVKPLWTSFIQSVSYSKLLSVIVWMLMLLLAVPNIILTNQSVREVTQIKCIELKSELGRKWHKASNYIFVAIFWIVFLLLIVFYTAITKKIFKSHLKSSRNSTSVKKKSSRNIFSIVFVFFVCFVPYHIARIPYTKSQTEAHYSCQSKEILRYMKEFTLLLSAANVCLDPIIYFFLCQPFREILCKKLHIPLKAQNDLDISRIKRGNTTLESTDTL
Description: cAMP production assay for P2Y14R antagonistic activity in P2Y14-HEK293 cells. In general terms: Cyclic AMP is a second messenger, typically raised through Gs and lowered through Gi signalling.

The subject of a further assay is HT-29 cells. Kind of assay: TSZ-induced necroptosis in HT-29 cells (CCK8 viability, PI/Hoechst, H&E staining). Type of assay: cell-based, human. The following applies: for siP2Y14R-derived protection against TSZ-stimulated necroptosis: siP2Y14R HT-29 cells. The protocol: Necroptosis was induced by pretreatment with TNF‐α (20 ng·mL^−1) plus z‐VAD‐fmk (20 μM) and Smac mimetic (BV6, 2 μM) for 8 h, then stained cells with hematoxylin/eosin. For PI/Hoechst staining, cells were stained with PI and Hoechst for 20 min, then photographed with a fluorescence microscope and at least 300 cells were counted. The ratio of PI positive cells (%) = (PI positive cells) / (Hoechst positive cells) × 100%. For cell viability assay, CCK8 was added to the well and incubated for 1 − 2 h and then OD450 was measured using a multi-mode microplate reader (Cytation5, BioTek).

The test system of assay [1] is CREB binding to Ripk1 promoter. Kind of assay: ChIP-qPCR with anti-CREB on Ripk1 gene promoter in HCT-116 cells. In kind it is cell-based, human. As to conditions: UDPG+TSZ, pre-treatment. An excerpt:
Total RNA was extracted from cells or colonic tissues using Trizol (Thermo) under the manufacturer’s instructions. First strand cDNA was synthesized using the PrimeScript RT Reagent Kit (480, Abm). SYBR Green Master Mix reagents (Q331-02, Vazyme) and primer mixtures (Table S1) were used for the real-time PCR. […] The procedure was as described in the kit provided by the manufacturer. Briefly, isolated IECs were fixed by 1% formaldehyde, and fragmented by sonication. CREB was then used for immunoprecipitation. After washing and reverse-crosslinking, the precipitated DNA was amplified by primers and quantified by the qPCR. Primer sequences can be found in Supplementary Table 1.

A further assay has as its system intestinal organoids. Kind of assay: TSZ-induced necroptosis in intestinal organoids (PI staining). The following applies: for Protection of P2Y14R deficiency against TSZ-mediated necroptosis: P2Y14R△IEC organoids, pre-treated. Type of assay: cell-based, mouse. The protocol:
Crypts were released from the murine small intestine by incubation for 30 min at 4°C in PBS containing 2 mM EDTA. Isolated crypts were counted and pelleted. […] Organoid media were changed every 3 days. […] Dead cell imaging in live organoids was performed on the fluorescence microscope (BX53, Olympus Optical), and analyzed by image j.

pIC50: −log10 of the molar value. Values joined by “and” are separate entries in the source; they are usually repeats but may differ in a detail not shown here. Equal entries are not always repeated.

Broadly, the pIC50 is the negative decadic logarithm of the IC50, by convention in mol/L. Lower therefore signals a large IC50. In turn, `Cn1c(CNc2ccccc2)nc2ccccc21` [D4] had a pIC50 against P2Y14R of 7.60.

Take `CC(C)S(=O)(=O)c1ccc2nccc(Nc3ccc4scnc4c3)c2c1` [GSK'872]: the “PI positive (%)” value in the assay with HT-29 cells (P2Y14R-OE cells + TSZ, replicates, supplement Figure 2c) was 19.4151% and 12.3349% and 11.6079%.

Turning to `CC(C)S(=O)(=O)c1ccc2nccc(Nc3ccc4scnc4c3)c2c1` [GSK’872], in the assay on HT-29 cells (HT-29 cells, UDPG+TSZ), the “UDP-glucose derived damage on TSZ-stimulated necroptosis” value is “remarkably attenuated the UDP-glucose derived damage on TSZ-stimulated necroptosis”. Moreover, in assay [1], the “Decrease of binding between CREB and Ripk1 promoter (ChIP)” value is “did not affect this process”. Moreover, the “UDPG-increased TSZ necroptosis in organoids” value in the assay on intestinal organoids (P2Y14Rfl/fl organoids, UDPG+TSZ) is “remarkably attenuated this damage”.

Consider `O=S(=O)(NCCNC/C=C/c1ccc(Br)cc1)c1cccc2cnccc12` [H-89], for which the “siP2Y14R-derived protection against TSZ-stimulated necroptosis” value in the assay on HT-29 cells is recorded as “disrupted the siP2Y14R-derived protective effect on TSZ-stimulated necroptosis”. For the same compound, the “Protection of P2Y14R deficiency against TSZ-mediated necroptosis” value in the assay with intestinal organoids is on record as “disrupted the improvement of P2Y14R deficiency on TSZ-mediated necroptosis”.

Regarding `Nc1ncnc2c1ncn2C1CCCO1` (stereo not drawn) [SQ22536], the “siP2Y14R-derived protection against TSZ-stimulated necroptosis” value in the assay with HT-29 cells was “disrupted the siP2Y14R-derived protective effect on TSZ-stimulated necroptosis”. Moreover, in the assay on intestinal organoids, the “Protection of P2Y14R deficiency against TSZ-mediated necroptosis” value is “disrupted the improvement of P2Y14R deficiency on TSZ-mediated necroptosis”.
